# Source: ChEMBL document CHEMBL4888484, “Replenishing the malaria drug discovery pipeline: Screening and hit evaluation of the MMV Hit Generation Library 1 (HGL1) against asexual blood stage Plasmodium falciparum ,using a nano luciferase reporter read-out” (2022)
# The whole screen tested about 150,000 compounds, of which about 540 (0.36%) showed an effect of 50% or more. The list shows a part of the results.
# System: Plasmodium falciparum
# Experiment: Primary screen in NF54 nanoGlo assay, in single point, at 2uM, 72h; a lower Z score goes with more inhibition
# Format: functional, Erythrocyte
# Details: timepoint 72 hour
Compound,% Inhibition [%],Z score
O=C1c2[nH]c3ccccc3c2[C@@H](c2cccc(Cl)c2)OCCN1Cc1ccccc1,7,-0.8
Cc1ccc(-c2ccc(CCC(=O)NCCc3cnn(C)c3)o2)cc1,-4,0.48
CO[C@H]1[C@H](NC(=O)c2ccsc2)c2ccccc2C12CCN(Cc1ccc3ncccc3c1)CC2,14,-1.81
CC1CN(CC(O)Cn2ccnc2C(=O)c2ccccc2)CC(C)O1 (stereo not drawn),4,-0.57
CC[C@H]1CCCCN1C(=O)Cc1c(C)nc2nc(-c3cccs3)nn2c1C,-10,1.19
COc1cccc(N2CCN(C(=O)c3ccc4c(c3)N(Cc3ccc(F)cc3)C(=O)CO4)CC2)c1,2,-0.23
O=C(CN1Cc2ccccc2C1)N[C@H]1CCOC[C@@H]1O,-4,0.87
O=C(NCCCn1ncc2c(Cl)cccc21)c1ccco1,2,-0.29
C[C@@H]1Oc2ccc(-c3csc(NC(=O)c4ccccc4Cl)n3)cc2N(C)C1=O,31,-0.96
CCCn1nccc1-c1csc(S(=O)(=O)NCc2cccc(F)c2)c1,-3,0.59
O=C(c1cccc(=O)[nH]1)N1CCC[C@H](c2n[nH]c(=O)n2-c2ccccc2)C1,2,-0.39
Cc1cccc2nc(NCCc3nnc(C4CCOCC4)[nH]3)sc12,-8,1.07
O=C(NC1CCN(Cc2ccccc2)CC1CO)c1ccc(Cl)s1 (stereo not drawn),-13,1.55
COc1cccc(CNC(=O)c2ccc(NS(=O)(=O)c3ccc(-c4cccc(F)c4)cc3)cc2)c1,-14,2.19
Cc1ccccc1-c1nc2n(CC(=O)N3CCN(c4ccc(F)cc4)CC3)c(C)cc(=O)n2n1,-9,1.41
CCN(CCC(=O)N1CCCC1)C(=O)c1cc2n(n1)CCCN(Cc1ccc(F)cc1)C2=O,-14,1.34
CCCc1ccc(CN2CCc3[nH]cnc3[C@@H]2C2CC2)o1,-10,1.54
COC1(C)CN(c2cc(C3CC3)ncn2)C1,-2,0.28
COC1CCCCC1NC(=O)Nc1cccc(-c2ncc(C)o2)c1 (stereo not drawn),-3,0.66
CC(C)C(=O)N(Cc1cc(NC(=O)c2cccs2)ccc1N(C)C)CC1CC1,-14,2.64
Cc1ccncc1NC(=O)C1CCCN(C(=O)OC(C)(C)C)C1C (stereo not drawn),-2,0.29

Compound,% Inhibition [%],Z score
CCOc1cc(CNc2ccc3c(c2)OCO3)ccc1OC,-1,0.26
CC1CCCC(C)N1C(=O)C(=O)Nc1ccc(NC(N)=O)cc1 (stereo not drawn),-9,1.57
C[C@H](NC(=O)c1cc(F)cc(F)c1)c1ccccc1NC(=O)c1cc(F)cc(F)c1,31,-4.12
CN(C)S(=O)(=O)N[C@H]1CCN(C(=O)COc2ccccc2)C1,-8,1.43
O=C(Nc1ccc2c(c1)C(O)=Nc1cccnc1O2)C1CCCC1,8,-0.97
CO[C@H]1CCCC[C@@H]1NC(=O)N1CCC[C@@H]1c1csc(C)n1,-12,1.39
COc1cc(NC(=O)Cn2cc(C)cn2)sn1,0,0.03
CC(C)(C)N(CCS(C)(=O)=O)C(=O)c1cc(Cl)sc1Cl,-8,1.31
CC[C@H](NS(=O)(=O)N1CCOCC1)c1nc(-c2ccccc2)c[nH]1,-6,0.98
CC1CCN(c2ccc3nnc(CCC(=O)N4CCN(c5ccccn5)CC4)n3n2)CC1,-18,1.73
Cc1nc2c(c(N3CCCC3)n1)CCN(C(=O)CCCn1cncn1)C2,3,-0.46
O=C(Nc1cc(Cl)ccc1O)c1cnc(-c2ccncc2)s1,-11,1.54
Cc1cc(C)c(CCNCc2c[nH]nc2-c2cccnc2)c(C)c1,-7,1.01
NS(=O)(=O)c1csc(C2OCCO2)c1,-9,1.68
Cc1ccc(C(C)(C)CN(C)CC(=O)NC(N)=O)cc1,-15,3.07
O=C1NCCCC[C@@H]1NC1CCN(Cc2ccccc2)CC1,-7,1.35
O=C(CN1CCC(c2ncccn2)CC1)Nc1ccc(F)cc1F,-22,2.18
COc1ccc(OC)c2c1cc1n2CC(C)(C(=O)NC2CCCCC2C)N(CCC(C)C)C1=O (stereo not drawn),-7,1.2
CCc1cc(N2CCC[C@H](n3ccnn3)C2)nc(CC)n1,-8,1.73
O=S(=O)(c1ccc(-n2cnnn2)cc1)N1CCN(c2cnccn2)CC1,-5,0.91
CCCCN(C)c1nnc(NC(=O)NCc2ccccc2)s1,-19,2.84

Compound,% Inhibition [%],Z score
O=C(NCc1ccc2nonc2c1)N(Cc1cccnc1)C1CCCCC1,8,-1.09
COCc1cn([C@@H]2CC[C@H]3CCOc4ccccc4C(=O)N4CCNC[C@H]4C(=O)NC[C@H]2O3)nn1,31,-3.49
CCOc1ccc(NC(=O)[C@@H]2CN(S(=O)(=O)c3ccc(OC)cc3)c3ccc(C)cc3O2)cc1,-11,1.48
COc1ccc(-n2cccn2)cc1S(=O)(=O)N1CCc2[nH]cnc2C1,3,-0.55
COc1ccccc1C(=O)N1CCn2c(nnc2[C@@H]2CCCCN2C(=O)N(C)C)C1,2,-0.25
CCCN1CCC(NC(=O)Cc2cccs2)CC1,9,-0.79
O=C(CS(=O)(=O)c1ccccc1)NC1CCCCCC1,-1,0.17
CC(C)COc1ccc(CN=C(N)N)cc1Cl,12,-2.22
c1ccc(NCC2OCc3ccccc3CO2)cc1,-6,0.76
Cc1nc(CC2CCCN(C(=O)NC3CCN(c4ccccn4)C3)C2)no1 (stereo not drawn),-5,0.67
COCC(=O)Nc1cc(C)nn1-c1nc2c(c(=O)[nH]1)CCC2,1,-0.17
Cc1ccc(Cl)c(N(Cc2ncc[nH]2)C(=O)c2cscn2)c1,-11,1.36
CC(C)(C)[C@@H](CO)NC(=O)Nc1ccn(CCC#N)n1,-12,1.55
CN(C)CC[C@H]1CCCN1C(=O)OCC(F)(F)F,1,-0.22
O=C(CN1CCCOC1=O)NC1CCCC1c1ccc(F)cc1 (stereo not drawn),29,-3.24
CCN1CCN(C(=O)c2ccc(C)n2C(F)F)CC1=O,-11,1.42
C=CCNC(=O)CNC(=O)COc1ccccc1,-9,1.34
CNS(=O)(=O)Nc1ccc(NC(=O)C2CCOC2C(C)C)cc1 (stereo not drawn),1,-0.08
C[C@H]1CCc2[nH]nc(C(=O)NCc3nncn3CCc3ccccc3)c2C1,-18,2.28
O=C(c1cc(C(F)(F)F)n[nH]1)N1C[C@@H]2CC[C@H]1CN(Cc1ccccn1)C2,-3,0.34
Cc1nc(CCNS(=O)(=O)CCNS(=O)(=O)c2ccccc2)cs1,-5,0.56

Compound,% Inhibition [%],Z score
CCC(=O)Nc1ccc(C(=O)N2CCC3(CC2)CN(C)CCN3C)cc1,-11,2.01
c1ccc2c(c1)nnn2OCCN1CCCCC1,-7,1.06
CCCC1CC1NC(=O)NC1CCCC2OCCC12 (stereo not drawn),5,-0.72
CC(C)c1nnc(N2CCC(c3cc[nH]n3)CC2)s1,-9,1.93
COc1ccc(NC(=O)N2CCCCC[C@@H]2CN2CCCC2)cc1,-2,0.3
COc1ccc(C)cc1C(=O)N1CCC(CCN2CCCC2=O)CC1,-8,1.52
O=C(C1CCCN(c2cccc3c2C(=O)N(CC2CCCO2)C3=O)C1)N1CCC(O)(c2cccc(C(F)(F)F)c2)CC1 (stereo not drawn),-10,1.83
CCCN1CC[C@H](CNC(=O)Nc2cc(C)cc(N3CCN(C)CC3)c2)C1,-4,0.64
CC1CCC(O)C(C2CCCN2C(=O)NCCc2cnccn2)C1 (stereo not drawn),-9,1.35
Cc1cc(NC(=O)N2CC[C@@H]3OCC[C@@H]3C2)ccn1,-6,1.08
O=C(Nc1ccc(Nc2ccccc2)cc1)c1ccco1,-2,0.33
COc1cc(Br)c(F)cc1S(=O)(=O)NCCNS(=O)(=O)N(C)C,-3,0.55
CCCCN(C)C(=O)C1CCN(c2nnc(C)c3c(C)n(-c4ccc(Cl)cc4)nc23)CC1,16,-1.82
O=C(CN1CCN(c2cccc(Cl)c2)C1=O)NCc1ccco1,-16,1.85
COc1ccc(NC(=O)c2c(C)noc2C)cn1,11,-1.29
COC(=O)c1c(-c2cccc(Cl)c2)noc1Nc1ccc2c(c1)OCO2,-3,0.6
Cc1coc(-c2cc(NC(=O)CC(F)(F)F)ccc2C)n1,-11,1.47
COc1ccc(OC)c(CNC(=O)Cn2c(=O)nc(-c3ccccc3)c3cc(Cl)ccc32)c1,-11,1.09
C[C@@H](c1ccc(Cl)cc1)N(Cc1nc(C(=O)O)co1)C1CC1,4,-0.89
CN(Cc1ccnn1C)C(=O)c1c[nH]c(C(F)(F)F)c1,1,-0.16
Cc1cnn(C2(C(=O)O)CCN(c3cnc4ccccc4n3)CC2)c1,-7,1.11
